{"source": "PubChem BioAssay AID588453", "about": "(National Center for Advancing Translational Sciences (NCATS), 2011)", "note": "Among all 390,000 compounds or so, about 4,000 (1%) were called active. This list was built around the results that the source calls inconclusive (neither active nor inactive); the mix of calls is not that of the screen. Calls come from the whole dose curve; as a rule, active = well fitted inhibition curve with a large enough effect; inconclusive = small, poorly fitted or top-dose-only effect; inactive = no such curve, though single readings can be large or run the other way. Potencies of inconclusive entries are doubtful fits and often do not repeat. Potency is the fitted concentration of half-maximal effect; tags give direction and shape of the fitted curve.", "data": [{"molecular_target": "Thioredoxin reductase 1, cytoplasmic (Rattus norvegicus) (UniProt O89049)", "sequence (O89049 whole entry, looked up)": "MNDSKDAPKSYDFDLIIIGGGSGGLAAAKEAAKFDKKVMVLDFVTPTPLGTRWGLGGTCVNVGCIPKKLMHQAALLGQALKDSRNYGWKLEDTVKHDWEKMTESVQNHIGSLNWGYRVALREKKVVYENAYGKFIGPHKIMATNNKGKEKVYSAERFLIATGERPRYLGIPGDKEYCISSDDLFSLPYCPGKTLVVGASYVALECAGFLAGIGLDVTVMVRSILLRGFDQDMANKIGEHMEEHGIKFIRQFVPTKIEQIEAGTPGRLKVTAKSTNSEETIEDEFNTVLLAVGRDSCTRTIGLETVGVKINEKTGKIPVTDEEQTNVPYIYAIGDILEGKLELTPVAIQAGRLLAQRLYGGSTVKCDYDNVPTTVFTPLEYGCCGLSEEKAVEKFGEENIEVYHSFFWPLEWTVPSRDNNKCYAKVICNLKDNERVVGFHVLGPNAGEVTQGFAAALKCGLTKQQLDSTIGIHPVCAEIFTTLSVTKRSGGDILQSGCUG", "assay": "qHTS Assay for Inhibitors of Mammalian Selenoprotein Thioredoxin Reductase 1 (TrxR1): qHTS; note: nearly all actives have a fitted effect of over 65% in size", "conditions": "recombinant rTrxR1, NADPH fluorescence consumption, selenite substrate; series mostly up to 114 µM", "text": "The selenoprotein thioredoxin reductase (TrxR; EC 1.8.1.9) is a FAD containing homodimeric pyridine nucleotide-disulfide oxidoreductase with many cellular roles. Together with NADPH and its prime substrate thioredoxin (Trx), the enzyme forms the core of the Trx system. The mammalian Trx system exerts a wide spectrum of functions including redox regulation, antioxidant defense, regulation of transcription factors as well as support of cell growth and replication. Many of these functions involve the reduction of Trx, which may subsequently reduce a number of different substrates including ribonucleotide reductase, peroxiredoxins or NFkB. Mammalian TrxR itself also has a broad substrate specificity, reducing both protein and non-protein substrates, including low molecular weight compounds such as dehydroascorbate, lipoic acid, ubiquinone, and juglone. In addition, several drugs in clinical use for anticancer treatment are indeed known to target TrxR1.\nThis BioAssay is a validation of an NADPH fluorescence-based, dual-purpose qHTS rTrxR1 assay designed to find potential inhibitors and substrates of rTrxR1. For this particular BioAssay, actives are potential inhibitors. See related BioAssay for substrate data deposition.\nNIH Molecular Libraries Probe Production Network [MLPCN]\nNIH Chemical Genomics Center [NCGC]\nAssay Provider: Elias Arner, Karolinska Institute\nAssay protocol: 2 uL of reagents (buffer in column 4 as negative control and 90 nM rTrxR1 in columns 1-3 and 5-48) were dispensed into Greiner black solid-bottom 1,536-well assay plates, followed by 1 uL of NADPH (400 uM final concentration) to each well. The plates were centrifuged at 1000 rpm for 15 seconds and subsequently incubated for 5 min at room temperature (~22 deg C) to allow for rTrxR1 reduction. Compounds (23 nL) were then transferred via Kalypsys pin tool equipped with 1536-pin array (10 nL slotted pins, V&P Scientific, San Diego, CA). In addition, a duplicate 2-fold serial dilution of the control compounds auranofin, a known gold-based TrxR1 inhibitor, and juglone (5-hydroxy-1,4-naphthoquinone), a natural TrxR1 substrate, were pin-transferred to columns 2 and 3, respectively. After incubation for 15 min at room temperature (~22 deg C), 1 uL of selenite (400 uM final concentration) were dispensed to each well. The plate was immediately transferred to a ViewLux high-throughput CCD imager (PerkinElmer), wherein kinetic measurements of NADPH fluorescence (Ex 340 nm, Em 450 nm) were acquired (8 minute kinetic read, see Table 1). Read 1 was utilized to assess the capacity of a compound to serve as an rTrxR1 substrate, i.e. a decrease in NADPH fluorescence compared to the no-compound background is an indication of a substrate behavior for that particular compound. For inhibitory activity of a compound, delta values, computed as the difference in fluorescence intensity between the first and last reads of an 8-minute time kinetic window, were used. All reagents were diluted in an assay buffer consisting of 50 mM Tris-HCl, pH 7.5, 2 mM EDTA, and 0.01% Tween-20.\nThroughout the screen, reagent bottle and all liquid lines were made light-tight to minimize reagent degradation. All screening operations were performed on a fully integrated robotic system (Kalypsys, San Diego, CA) containing one RX-130 and two RX-90 anthropomorphic robotic arms (Staubli, Duncan, SC). Library plates were screened starting from the lowest and proceeding to the highest concentration, and a 'double-pinning' step of the highest concentration was required to access higher concentrations of compounds. Vehicle-only plates, with DMSO being pin-transferred to the columns 5-48, were inserted uniformly at the beginning and the end of each library in order to monitor and record any shifts in the background, which can be affected by reagent dispensers or loss in enzyme activity over time. […]", "values": [{"smiles": "CCOc1cc(/C=C2\\C(=O)N(CCc3ccc(OC)c(OC)c3)C(C)=C2C(=O)OC)ccc1O", "Potency": "inconclusive: 11.2 µM [inhibitor, partial curve]"}, {"smiles": "CC1(C)Cc2c(sc(NC(=O)c3ccc(S(=O)(=O)N4CCCCCC4)cc3)c2C#N)C(C)(C)N1", "Potency": "inconclusive: 31.6 µM [inhibitor, full curve]"}, {"smiles": "Cc1ccc(CNC(=O)CSc2c3c(nc4ccc(Cl)cc24)CCCC3)o1", "Potency": "inconclusive: 15.8 µM [inhibitor, partial curve]"}, {"smiles": "CC(C)CC1Nc2ncnc(N3CCN(c4ccccn4)CC3)c2N(Cc2ccccc2)C1=O", "note": "(centres undefined)", "Potency": "inactive"}, {"smiles": "Cc1nnc(SC(C)C(=O)N(C)C2CCCCC2)n1N", "note": "(centres undefined)", "Potency": "inconclusive: 89.1 µM [inhibitor, partial curve, poor fit]"}, {"smiles": "COc1ccc(C2C(C(C)=O)=C(O)C(=O)N2c2nccs2)c(OC)c1", "note": "(centres undefined)", "Potency": "inconclusive: 44.7 µM [inhibitor, partial curve, poor fit]"}, {"smiles": "O=C(Nc1cccc(F)c1)/C(=C/c1ccco1)NC(=O)c1ccco1", "Potency": "active: 44.7 µM"}, {"smiles": "N#CC1=C(N)OC2=C(CC/C2=C\\c2ccccc2)C1c1ccccc1", "note": "(centres undefined)", "Potency": "inconclusive: 15.8 µM [inhibitor, single point]"}, {"smiles": "N#CC1=C(S)N(c2ccccc2)C(c2ccc(-c3ccc(Cl)c(Cl)c3)o2)NC1=O", "note": "(centres undefined)", "Potency": "inconclusive: 50.1 µM [inhibitor, single point]"}, {"smiles": "CCc1ccc(C(=O)/C=C2\\Sc3ccccc3NC2=O)cc1", "Potency": "inactive"}, {"smiles": "N#CCN1CCN(CC(=O)c2ccc(Br)cc2)CC1", "Potency": "inconclusive: 89.1 µM [inhibitor, partial curve, poor fit]"}, {"smiles": "CCOC(=O)c1cc(OC(=O)c2ccc(OC)c(OC)c2)n(-c2ccccc2)n1", "Potency": "inconclusive: 20 µM [inhibitor, full curve]"}, {"smiles": "Nc1c(C(=O)Nc2ccc(F)cc2)sc2nc(-c3ccco3)ccc12", "Potency": "inconclusive: 1.41 µM [inhibitor, full curve, poor fit]"}, {"smiles": "C=CCn1c(SCC(N)=O)nc2scc(-c3ccc(C)o3)c2c1=O", "Potency": "inconclusive: 50.1 µM [inhibitor, partial curve, poor fit]"}, {"smiles": "CS(=O)(=O)N1N=C(c2ccco2)CC1c1cccc([N+](=O)[O-])c1", "note": "(centres undefined)", "Potency": "inconclusive: 89.1 µM [inhibitor, single point]"}, {"smiles": "CC1CCN(C(c2ccc(N(C)C)cc2)c2nnnn2C(C)(C)C)CC1", "note": "(centres undefined)", "Potency": "inconclusive: 17.8 µM [inhibitor, partial curve, poor fit]"}, {"smiles": "COc1cccc(/C=C/c2ccnc3ccccc23)c1OC", "Potency": "inactive"}, {"smiles": "COc1cc(CNn2cn[nH]c2=S)cc(Cl)c1OCc1ccc(F)cc1", "Potency": "inconclusive: 79.4 µM [inhibitor, single point]"}, {"smiles": "CC1CC(C)CN(CCCNC(=O)CN2C(=O)CSc3ccc(S(=O)(=O)N4CCCCC4)cc32)C1", "note": "(centres undefined)", "Potency": "inactive"}, {"smiles": "CCOc1cc(NC(=S)NCCCN2CCOCC2)c(OCC)cc1NC(=O)c1ccc(OC)cc1", "Potency": "inconclusive: 44.7 µM [inhibitor, partial curve, poor fit]"}, {"smiles": "CCOC(=O)C(CC)(CC)C(=O)/C=C/c1cccc(Br)c1", "Potency": "inconclusive: 70.8 µM [inhibitor, partial curve, poor fit]"}, {"smiles": "O=S(=O)(CCOc1ccccc1)c1nc2ccccc2[nH]1", "Potency": "active: 44.7 µM"}, {"smiles": "O=c1ccc(-c2ccc(S(=O)(=O)Nc3ccccc3)o2)n[nH]1", "Potency": "inconclusive: 50.1 µM [inhibitor, partial curve]"}, {"smiles": "CCc1ccccc1NC(=O)c1cnc2sc(N3CCOCC3)nn2c1=O", "Potency": "inactive"}, {"smiles": "COc1cc(/C=C/C(=O)c2c(O)cc(C)oc2=O)cc(OC)c1O", "Potency": "inconclusive: 28.2 µM [inhibitor, partial curve, poor fit]"}, {"smiles": "COc1ccc2cc(/C=C3\\SC(=S)NC3=O)c(N3CCOCC3)nc2c1", "Potency": "inactive"}, {"smiles": "Cc1ccc(C(CNS(=O)(=O)c2ccc(C)cc2)N2CCN(C)CC2)cc1", "note": "(centres undefined)", "Potency": "inactive"}, {"smiles": "Cc1nc([N+](=O)[O-])cn1CC(O)c1ccc2c(c1)OCO2", "note": "(centres undefined)", "Potency": "inactive"}, {"smiles": "CC[n+]1ccc(C[n+]2ccccc2)c2ccccc21", "Potency": "inconclusive: 100 µM [inhibitor, single point]"}, {"smiles": "CSCC[C@H](NS(=O)(=O)c1ccc(C(C)=O)cc1)c1nnc2ccccn12", "Potency": "inconclusive: 22.4 µM [inhibitor, full curve]"}, {"smiles": "Cc1oc(-c2ccccc2)cc1C(=O)NC(Cc1c[nH]c2ccccc12)C(=O)O", "note": "(centres undefined)", "Potency": "inconclusive: 20 µM [inhibitor, single point]"}, {"smiles": "CCOC(=O)c1ccc(CNc2ncnc3nc[nH]c23)cc1", "Potency": "inactive"}, {"smiles": "CCOC(=O)c1[nH]c2cc3c(cc2c1NC(=O)CN1CCC2(CC1)OCCO2)OCO3", "Potency": "inconclusive: 70.8 µM [inhibitor, single point]"}, {"smiles": "COc1ccc(NC(=O)C2CCC2)cc1S(=O)(=O)Nc1cc(C)ccc1Br", "Potency": "inactive"}, {"smiles": "Cc1ccc(CN(C)C(=O)c2ccccc2Oc2ccccc2)o1", "Potency": "active: 11.2 µM"}, {"smiles": "COc1ccccc1C(=O)NC(=O)CSc1nc(C)cs1", "Potency": "inactive"}, {"smiles": "O=C1Cn2c(nc3ccccc32)N1c1cccc(C(F)(F)F)c1", "Potency": "inconclusive: 89.1 µM [inhibitor, single point]"}, {"smiles": "CCc1c(C2(O)CCCCC2)[nH]c2ccc(C(=O)OC)cc12", "Potency": "inactive"}, {"smiles": "O=C(NC(=S)Nc1ccc(Br)cc1)C1CCC1", "Potency": "inconclusive: 70.8 µM [inhibitor, single point]"}, {"smiles": "O=[N+]([O-])c1ccc2nc(-c3ccccc3)[nH]c2c1", "Potency": "inactive"}, {"smiles": "COc1ccc(CCNC(=O)C/C(C)=N/NC(=O)c2ccc(N)cc2)cc1OC", "Potency": "inconclusive: 0.282 µM [inhibitor, full curve, poor fit]"}, {"smiles": "N#CC1=C(SCC(=O)c2ccccc2)NC2=C(C(=O)CCC2)C1c1ccco1", "note": "(centres undefined)", "Potency": "inconclusive: 28.2 µM [inhibitor, single point]"}, {"smiles": "COc1ccc(OC)c(C2C(C(C)=O)=C(O)C(=O)N2CCN2CCOCC2)c1", "note": "(centres undefined)", "Potency": "inactive"}, {"smiles": "CCn1nc(-c2ccccc2C)nc2c(=O)n(C)c(=O)nc1-2", "Potency": "inconclusive: 15.8 µM [inhibitor, full curve, poor fit]"}]}]}
